{"source": "PubChem BioAssay AID1345083", "about": "(National Center for Advancing Translational Sciences (NCATS), 2018)", "note": "“And” between values parts separate entries of the source, which are not always exact repeats. Equal values may be shown once. Among all 94,000 compounds or so, about 6,200 (6.6%) were called active. Inconclusive results, whose numbers are uncertain, are shown with a selection of clear calls. Calls follow the shape of the dose curve; as a rule, active = well fitted inhibition curve with a large enough effect; inconclusive = small, poorly fitted or top-dose-only effect; inactive = flat fitted curve, though single readings scatter. Where the call is inconclusive, the potency comes from a doubtful curve fit. % is scaled to controls: 0 for no effect and ±100 for the full control effect; potency is read from the fitted curve at half-maximal effect; tags tell the direction and shape of the fitted curve."}
{"assay": "Cytotoxic Profiling in HEK 293 Cell Line of Diverse Libraries Using Quantitative High-Throughput Screening; also: nearly all actives have a fitted effect of over 60% in size", "details": "HEK 293 viability, ATP luminescence (CellTiter-Glo), 48-72 h; series mostly up to 115 µM; activity change, negative = cytotoxicity: at the top concentration", "how_it_was_run": "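250 HEK 293 cells/well; compound by pintool; incubated 48 or 72 hr at 37 degree Celsius; CellTiter-Glo added, 10 min RT, luminescence imaged.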"}
{"smiles": "CCOC(=O)[C@H]1CN(C(=O)OCc2ccccc2)[C@]2(C)C(=O)Nc3ccccc3[C@H]12", "Potency": "inconclusive: 39.8 µM [inhibitor, single point]"}
{"smiles": "CCC(CC)c1cc([C@H]2CN3CC[C@H]2C[C@@H]3CNC(=O)c2ccc(C)cc2)nc(-c2ccncc2)n1", "Potency": "active: 44.7 µM"}
{"smiles": "COC(=O)N1CCC2(CC1)C(=O)NN=C2c1cccnc1", "Potency": "inconclusive: 126 µM [inhibitor, single point]"}
{"smiles": "O=C1NC2(Cc3ccccc31)CN(CC1CC1)C2", "outcome": "inactive [at 230 µM]"}
{"smiles": "CN(Cc1ccccc1)C[C@H]1CN2CC[C@H]1C[C@@H]2CNC(=O)c1ccc(C(F)(F)F)cc1", "Potency": "inconclusive: 56.2 µM [inhibitor, partial curve, poor fit]"}
{"smiles": "Cn1cc(C(=O)N2[C@H]3CC[C@@H]2c2cnc(-c4ccc(F)cc4)nc2C3)cn1", "Potency": "inconclusive: 44.7 µM [inhibitor, partial curve]"}
{"smiles": "COc1cc2c(cc1OCC1CC1)NC(=O)C21CCN(C(=O)c2cccc(C#N)c2)CC1", "Potency": "active: 79.4 µM"}
{"smiles": "COc1cc2c(cc1OCC1CC1)NC(=O)C21CCN(Cc2cccc(O)c2)CC1", "Potency": "active: 89.1 µM"}
{"smiles": "Cn1nc(C2CCCCC2)cc1[C@H]1CN2CC[C@H]1C[C@@H]2CNS(C)(=O)=O", "activity change, negative = cytotoxicity": "inactive: -16.3% [at 172 µM]"}
{"smiles": "Cc1nc(-c2ccccc2)cc([C@H]2CN3CC[C@H]2C[C@@H]3CNC2CCN(C)CC2)n1", "Potency": "active: 28.2 µM"}
{"smiles": "CC(=O)Nc1ccc(S(=O)(=O)NC[C@H]2C[C@@H]3CCN2C[C@@H]3c2cc(-c3ccc(N(C)C)cc3)nc(C)n2)cc1", "Potency": "active: 22.4 µM"}
{"smiles": "CC(C)(C)CN1CC2ON=C(C(=O)O)C2C1", "note": "(centres undefined)", "activity change, negative = cytotoxicity": "inactive: 0.133% [at 230 µM]"}
{"smiles": "Cc1ncc2c(c1CNCC1(O)CNCCOC1)CCNC2", "note": "(centres undefined)", "activity change, negative = cytotoxicity": "inactive: -1.4%"}
{"smiles": "Cc1nc(-c2ccco2)cc([C@H]2CN3CC[C@H]2C[C@@H]3CNC(=O)Cc2cccs2)n1", "Potency": "inconclusive: 100 µM [inhibitor, partial curve, poor fit]"}
{"smiles": "COc1ccccc1-c1cc([C@H]2CN3CC[C@H]2C[C@@H]3CNC(=O)Nc2cccc(C#N)c2)n(C)n1", "Potency": "inconclusive: 50.1 µM [inhibitor, partial curve, poor fit]"}
{"smiles": "Cc1ccc([C@@H]2CN(Cc3ncc[nH]3)[C@@H]3C4CCN(CC4)[C@@H]32)cc1", "activity change, negative = cytotoxicity": "inactive: 3.55%"}
{"smiles": "CCOC(=O)[C@H]1CN(C(=O)c2cc3ccccc3s2)[C@]2(C)C(=O)N(CC3CC3)c3ccccc3[C@H]12", "Potency": "inconclusive: 10 µM [inhibitor, partial curve, poor fit]"}
{"smiles": "COc1ccc(-c2cc([C@H]3CN4CC[C@H]3C[C@@H]4CNS(=O)(=O)Cc3ccccc3)n(C)n2)cc1OC", "Potency": "inconclusive: 89.1 µM [inhibitor, single point]"}
{"smiles": "COc1cc2c(cc1OCC1CC1)NC(=O)C21CCN(Cc2nccs2)CC1", "Potency": "inconclusive: 112 µM [inhibitor, partial curve]"}
{"smiles": "COCC(=O)NC[C@H]1C[C@@H]2CCN1C[C@@H]2c1cc(-c2ccccc2)nc(C)n1", "activity change, negative = cytotoxicity": "inactive: -27.8% [at 172 µM]"}
{"smiles": "CC1=NOC2(CCN(Cc3cncs3)C2)C1", "note": "(centres undefined)", "outcome": "inactive [at 172 µM]"}
{"smiles": "Cn1nc(C(=O)NCC2(C)CCOCC2)c2ccccc21", "activity change, negative = cytotoxicity": "inactive: 7.79%"}
{"smiles": "COc1ccc(-c2cc([C@H]3CN4CC[C@H]3C[C@@H]4CNS(=O)(=O)c3cccs3)n(C)n2)cc1OC", "Potency": "inconclusive: 89.1 µM [inhibitor, single point]"}
{"smiles": "C#C[C@H]1CN2CC[C@H]1C[C@@H]2CNC(=O)c1ccc(C(F)(F)F)cc1", "Potency": "inconclusive: 141 µM [inhibitor, partial curve, poor fit]"}
{"smiles": "COc1cc2c(cc1Oc1ccccc1)NC(=O)C21CCN(C(=O)C2CCC2)CC1", "Potency": "inconclusive: 100 µM [inhibitor, partial curve, poor fit]"}
{"smiles": "COc1cc2c(cc1CCc1ccccc1)N(C(=O)C(C)C)CC21CCN(C(C)=O)CC1", "Potency": "active: 89.1 µM"}
{"smiles": "CCn1nccc1C(=O)N1[C@H]2CC[C@@H]1c1cnc(-c3ccccc3)nc1C2", "Potency": "inconclusive: 12.6 µM [inhibitor, full curve, poor fit]"}
{"smiles": "Cc1nc(-c2ccco2)cc([C@H]2CN3CC[C@H]2C[C@@H]3CNC(=O)c2ccccc2)n1", "Potency": "inconclusive: 100 µM [inhibitor, partial curve, poor fit]"}
{"smiles": "CCC(CC)c1cc([C@H]2CN3CC[C@H]2C[C@@H]3CNC(=O)Nc2ccc(OC)cc2)nc(-c2ccncc2)n1", "Potency": "active: 31.6 µM"}
{"smiles": "COc1cc2c(cc1OCc1ccccc1)N([S+](=O)([O-])c1ccccc1C(F)(F)F)CC21CCN(C)CC1", "Potency": "active: 20 µM"}
{"smiles": "O=C(NC[C@H]1C[C@@H]2CCN1C[C@@H]2CN1CCN(c2ccccc2)CC1)Nc1ccccc1", "Potency": "inconclusive: 126 µM [inhibitor, single point]"}
{"smiles": "CCC(CC)c1cc([C@H]2CN3CC[C@H]2C[C@@H]3CNC(=O)CCCC(=O)O)nc(-c2ccncc2)n1", "outcome": "inactive"}
{"smiles": "O=C(NCc1ccc2c(c1)OCO2)[C@H]1CN2CCC1C[C@@H]2Cn1cc(-c2cccc(O)c2)nn1", "note": "(some centres undefined)", "Potency": "inconclusive: 12.6 µM [inhibitor, partial curve, poor fit]"}
{"smiles": "Cc1ccc(C(=O)NC[C@H]2C[C@@H]3CCN2C[C@@H]3c2cc(-c3cccs3)nn2C)cc1", "Potency": "inconclusive: 112 µM [inhibitor, partial curve, poor fit]"}
{"smiles": "CCOC(=O)[C@H]1CN(S(=O)(=O)c2ccccc2)[C@]2(C)C(=O)N(CC3CC3)c3ccccc3[C@H]12", "Potency": "inconclusive: 39.8 µM [inhibitor, partial curve, poor fit]"}
{"smiles": "Cn1cc(CN2CCN(C(=O)Cc3ccsc3)CC2)ccc1=O", "activity change, negative = cytotoxicity": "inactive: -2.97%"}
{"smiles": "OCC1CN(C2CCC2)CC12CCN(Cc1cccnc1)CC2", "note": "(centres undefined)", "activity change, negative = cytotoxicity": "inactive: -6.66%"}
{"smiles": "CC1=NOC2(CCCN(CC3CCCCC3)C2)C1", "note": "(centres undefined)", "outcome": "inactive [at 172 µM]"}
{"smiles": "Cc1ncc2c(n1)C[C@@H]1CC[C@H]2N1C(=O)c1nn(C)c2ccccc12", "outcome": "inactive"}
{"smiles": "CC(=O)Nc1ccc(S(=O)(=O)NC[C@H]2C[C@@H]3CCN2C[C@@H]3c2cc(-c3ccccc3Br)nc(C)n2)cc1", "Potency": "inconclusive: 79.4 µM [inhibitor, partial curve]"}
{"smiles": "CCOC(=O)[C@@H]1[C@H]2c3ccccc3N(C)C(=O)[C@H]2N(C(=O)NC2CCCC2)[C@@H]1c1ccccc1", "Potency": "inconclusive: 17.8 µM [inhibitor, full curve, poor fit]"}
{"smiles": "O=C(NC1CCCCC1)OC[C@H]1C[C@@H]2CCN1C[C@@H]2c1cc(C2CCCC2)nc(-c2ccncc2)n1", "Potency": "inconclusive: 22.4 µM [inhibitor, full curve, poor fit]"}
{"smiles": "COCCNC(=O)[C@H]1CN2CCC1C[C@@H]2Cn1cc(-c2ccc(OC)cc2)nn1", "note": "(some centres undefined)", "activity change, negative = cytotoxicity": "inactive: -10.1% [at 172 µM]"}
{"smiles": "c1nc(N2CCOCC2)ncc1CN1CC[C@H]2CNC[C@H]21", "activity change, negative = cytotoxicity": "inactive: 3.74%"}
{"smiles": "Cc1nc(-c2ccc(N(C)C)cc2)cc([C@H]2CN3CC[C@H]2C[C@@H]3CNC(=O)C2CC2)n1", "Potency": "active: 70.8 µM"}
{"smiles": "CCOC(=O)[C@H]1CN(C(=O)NCc2ccccc2)[C@]2(C)C(=O)N(CC3CC3)c3ccccc3[C@H]12", "Potency": "inconclusive: 35.5 µM [inhibitor, partial curve, poor fit]"}
{"smiles": "FC(F)(F)CN1C2CCC1CN(c1cnc3ccccc3c1)C2", "Potency": "inconclusive: 89.1 µM [inhibitor, partial curve, poor fit]"}
{"smiles": "COCC1CN(C)CC12CCN(C(=O)c1cncc(C)c1)CC2", "note": "(centres undefined)", "Potency": "inconclusive: 31.6 µM [inhibitor, partial curve, poor fit]"}
{"smiles": "Cc1ccc(C(=O)N2CCC3(CC2)c2nccn2-c2ccccc2CN3C)cc1C", "Potency": "inconclusive: 79.4 µM [inhibitor, partial curve]"}
{"smiles": "C#C[C@H]1CN2CC[C@H]1C[C@@H]2CNC(=O)Nc1cc(OC)cc(OC)c1", "activity change, negative = cytotoxicity": "inactive: -15.2% [at 172 µM]"}
{"smiles": "CN(C1CCNCC1)C1CCOCC1", "outcome": "inactive"}
{"smiles": "Cn1nc(C2CCCCC2)cc1[C@H]1CN2CC[C@H]1C[C@@H]2CNS(=O)(=O)c1ccccc1", "Potency": "inconclusive: 50.1 µM [inhibitor, partial curve, poor fit]"}
{"smiles": "COc1ccc(S(=O)(=O)N2C[C@@H]3C[C@H](C2)c2c(-c4cccs4)ccc(=O)n2C3)cc1", "activity change, negative = cytotoxicity": "inactive: -4.67%"}
{"smiles": "O=C(Cc1ccc(F)cc1)N1CCN(C2CCN(Cc3cccnc3)C2=O)CC1", "note": "(centres undefined)", "Potency": "inconclusive: 100 µM [inhibitor, partial curve, poor fit]"}
{"smiles": "CCCSc1ncc(CN2CC[C@H]3CNC[C@H]32)cn1", "activity change, negative = cytotoxicity": "inactive: -10.3%"}
{"smiles": "COc1ccc(S(=O)(=O)NC[C@H]2C[C@@H]3CCN2C[C@@H]3CN2CCC(Cc3ccccc3)CC2)cc1", "Potency": "inconclusive: 22.4 µM [inhibitor, full curve, poor fit]"}
{"smiles": "O=C(Nc1ccc2n(c1=O)C[C@H]1C[C@@H]2CN(c2ncccn2)C1)c1ccccc1", "activity change, negative = cytotoxicity": "inactive: -0.57% [at 172 µM]"}
{"smiles": "CCC(CC)c1cc([C@H]2CN3CC[C@H]2C[C@@H]3CNC(=O)Nc2ccc(C(C)=O)cc2)nc(-c2ccncc2)n1", "Potency": "active: 25.1 µM"}
{"smiles": "CC(C)CCN(C1CCNCC1)C1CCOCC1", "activity change, negative = cytotoxicity": "inactive: -15.1%"}
{"smiles": "COc1cc2c(cc1OCCN(C)C)NC(=O)C21CCN(Cc2ccccc2)CC1", "Potency": "inconclusive: 100 µM [inhibitor, partial curve, poor fit]"}
{"smiles": "c1cnc2nc(C3CCCNC3)[nH]c2c1", "note": "(centres undefined)", "Potency": "inconclusive: 141 µM [inhibitor, single point] and inconclusive: 141 µM [inhibitor, partial curve, poor fit]"}
{"smiles": "COc1ccc(OC)c(S(=O)(=O)NC[C@H]2C[C@@H]3CCN2C[C@@H]3c2cc(-c3ccc4ccccc4c3)nn2C)c1", "Potency": "inconclusive: 89.1 µM [inhibitor, single point]"}
{"smiles": "CCCNC1CNC1", "activity change, negative = cytotoxicity": "inactive: -14.5% [at 460 µM]"}
{"smiles": "Cc1ccnc(N2CC3CCC(C2)N3CC(F)(F)F)c1[N+](=O)[O-]", "Potency": "inconclusive: 79.4 µM [inhibitor, partial curve, poor fit]"}
